Data: publication PMC4336329 (PLoS ONE, 2015)
Screen size: about 310,000 compounds; about 2,200 (0.71%) showed an effect of 50% or more. The effect is printed as a negative number. Some of the results follow.

These compounds were tested against human ether-à-go-go-related gene (hERG) potassium channel (human, UniProt Q12809) (assay: primary screen, population patch clamp on CHO cells stably expressing hERG).
human ether-à-go-go-related gene (hERG) potassium channel, sequence (Q12809 whole entry, looked up): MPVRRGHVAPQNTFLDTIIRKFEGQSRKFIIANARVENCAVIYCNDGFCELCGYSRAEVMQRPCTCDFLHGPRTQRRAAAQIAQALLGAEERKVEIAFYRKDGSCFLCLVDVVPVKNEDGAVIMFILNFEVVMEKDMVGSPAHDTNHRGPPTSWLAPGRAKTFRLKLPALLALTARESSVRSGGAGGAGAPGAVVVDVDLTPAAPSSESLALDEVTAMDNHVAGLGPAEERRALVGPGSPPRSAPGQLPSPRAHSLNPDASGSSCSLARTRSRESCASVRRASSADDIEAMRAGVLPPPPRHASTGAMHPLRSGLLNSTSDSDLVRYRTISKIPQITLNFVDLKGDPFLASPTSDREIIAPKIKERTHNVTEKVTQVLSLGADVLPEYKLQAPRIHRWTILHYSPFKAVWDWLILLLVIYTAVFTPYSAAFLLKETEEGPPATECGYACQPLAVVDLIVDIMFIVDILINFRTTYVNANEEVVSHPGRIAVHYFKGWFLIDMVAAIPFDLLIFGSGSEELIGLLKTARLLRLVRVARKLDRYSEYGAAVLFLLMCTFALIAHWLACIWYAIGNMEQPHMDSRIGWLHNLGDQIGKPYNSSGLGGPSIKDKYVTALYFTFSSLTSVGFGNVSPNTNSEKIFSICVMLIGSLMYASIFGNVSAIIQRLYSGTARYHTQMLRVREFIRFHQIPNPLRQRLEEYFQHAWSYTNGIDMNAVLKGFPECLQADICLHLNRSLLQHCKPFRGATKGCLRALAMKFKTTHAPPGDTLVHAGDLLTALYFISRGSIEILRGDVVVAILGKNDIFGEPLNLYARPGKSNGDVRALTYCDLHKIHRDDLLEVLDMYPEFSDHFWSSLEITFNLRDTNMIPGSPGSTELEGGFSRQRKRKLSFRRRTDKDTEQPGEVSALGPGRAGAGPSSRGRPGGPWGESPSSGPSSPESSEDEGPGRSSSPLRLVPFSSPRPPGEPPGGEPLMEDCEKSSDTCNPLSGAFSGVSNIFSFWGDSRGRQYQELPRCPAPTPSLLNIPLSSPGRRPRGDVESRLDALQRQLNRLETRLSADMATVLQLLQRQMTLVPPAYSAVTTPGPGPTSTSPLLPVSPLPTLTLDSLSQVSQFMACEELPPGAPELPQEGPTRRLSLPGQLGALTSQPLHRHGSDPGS

SMILES | hERG current change (%, negative = inhibition) at 1uM [%]
CCc1cc2c(=O)n(-c3ccccc3)c(=S)[nH]c2s1 | 11.3
CSC1=NNC(c2ccc(C(C)(C)C)cc2)=NN1 | -9.5
Cc1nc(C)c(C(=O)NCc2ccccc2Cl)o1 | 10.8
CC(=O)C1=C(C)NC(C)=C(C(C)=O)C1c1cccs1 | 11.2
O=C(N/N=C/c1ccco1)C1CC(=O)N(c2ccccc2)C1 (stereo not drawn) | 1.02
CC(=O)Nc1ccc(N2CCN(C(=O)c3cccs3)CC2)cc1 | 12.3
CC1C(=O)N2CCCc3cc(S(=O)(=O)N4CCN(c5ccccc5F)CC4)cc1c32 (stereo not drawn) | 18.3
Cc1cc(Cl)ccc1OC(C)C(=O)Nc1cnn(CCCC(=O)O)c1 (stereo not drawn) | 10.4
O=C(NCc1ccccn1)C1(C(F)(F)F)C/C(=C\CCO)CCCO1 (stereo not drawn) | 8.39
COc1ccc(-n2c(CNC(=O)COc3ccc(Cl)cc3Cl)n[nH]c2=S)cc1 | 1.91
Cc1ccccc1N1C(=O)c2cccc3cccc(c23)C1=O | 0.548
Cc1nn(C)cc1CN1CCC(CO)(CCOc2ccccc2)CC1 | 8.14
CCSc1nc2ccccc2n1Cc1ccccc1F | 2.61
COCC(=O)Nc1ccc(S(=O)(=O)NCCc2ccccc2)cc1 | 5.7
O=C(Nc1ccc(S(=O)(=O)Nc2nccs2)cc1)/C(=C/c1ccccc1Cl)NC(=O)c1ccccc1 | 8.01
CCN(CC)CCC(c1cc(OC)c(OC)c(OC)c1)c1c(OC)cc(OC)c2c(C)cc(=O)oc12 (stereo not drawn) | -9.35
CC(Sc1ncnc2ccccc12)C(=O)Nc1ccc2c(c1)OCCO2 (stereo not drawn) | 12.3
CC(C(N)=O)N1C(=O)c2cccc3cccc1c23 (stereo not drawn) | 4.13
NC(=O)C1CCN(C(=O)C2CC(=O)N(Cc3ccccc3)C2)CC1 (stereo not drawn) | 4.11
O=S(=O)(c1cccs1)N1CCN(CC(O)COc2cccc(Br)c2)CC1 (stereo not drawn) | -11.2
CCCNC(=O)c1ccc(Cl)cc1Cl | 6.2

SMILES | hERG current change (%, negative = inhibition) at 1uM [%]
O=C(c1ccc(S(=O)(=O)N2CCCCCC2)cc1)N1CCN(c2ccccc2)CC1 | -21.8
CS(=O)(=O)c1ccc2nc(NC(=O)c3ccc(NS(=O)(=O)c4cccc([N+](=O)[O-])c4)cc3)sc2c1 | 12.6
O=[N+]([O-])c1ccc(CSc2nnc3ccccn23)cc1 | -8.12
O=c1c2ccccc2nc(/C=C/c2ccccc2O)n1-c1ccccc1O | 13.6
COc1ccc(Br)cc1C(=O)Nc1ccccc1N1CCN(C(=O)c2ccccc2)CC1 | 7.55
COC(=O)CSc1nnc(-c2ccco2)n1-c1ccc(C)cc1 | -5.28
Cc1ccc(NC(=O)CSC2=C(C#N)C(c3ccco3)C3=C(CC(C)(C)CC3=O)N2)cc1 (stereo not drawn) | 18.7
O=C(CCc1nnc2n(Cc3ccc(Cl)cc3)c(=O)c3ccccc3n12)NCCCN1CCOCC1 | -27.1
O=C(c1ccc(CSc2ccc(Cl)cc2)cc1)N1CCCC1 | 9.01
COc1cc(/C=N/N=C(/N)c2nonc2N)cc(Br)c1OCc1cccc(C)c1 | 7.35
O=C(NC(NC(=S)N1CCOCC1)C(Cl)(Cl)Cl)c1cccc2ccccc12 (stereo not drawn) | 10.1
CCOC(=O)c1c(NC(=O)C2C3CCC(O3)C2C(=O)O)sc(C)c1-c1ccc(F)cc1 (stereo not drawn) | 1.64
CCCCN(C(=O)CN1C(=O)C2CC=CCC2C1=O)c1c(N)n(CCC)c(=O)[nH]c1=O (stereo not drawn) | 5.71
Cc1ccc(/C(O)=C2\C(=O)C(=O)N(Cc3cccnc3)C2c2ccccc2[N+](=O)[O-])cc1 (stereo not drawn) | 13.4
COC(=O)c1c(NC(=O)Cn2cnc([N+](=O)[O-])n2)sc2c1CCC(C)C2 (stereo not drawn) | 8.84
COc1c(C)cccc1C(=O)Nc1ccc(CN2CCOCC2)cc1 | 4.45
Clc1ccccc1Cn1nnc(-c2ccccc2)n1 | 5.98
Cc1cc(C)n(CC(=O)NCc2cc(-c3nn(C)c(=O)c4ccccc34)ccc2C)n1 | 2.9
C=CCNc1nc(-c2c(C)nc3ncccn23)cs1 | 6.73
COc1ccc(C(NC(=O)c2cc(OC)ccc2OC)c2ccccc2)cc1 (stereo not drawn) | 11.2
COC(=O)N1c2ccccc2CCc2ccccc21 | 5.26
